The record followed here is publication PMC4242493.

This is one part of the list. The list includes weakly bound sequences.

For the test, the target named is MaxL homodimer (UniProt P61244). In words: universal protein-binding microarray (PBM). Conditions: PBS-based mixture, 10 nM His-tagged protein dimer, 2% milk, 200 ng/uL BSA, 50 ng/uL salmon testes DNA, 0.02% TX-100; detection with Alexa 488 anti-His …; high values mean tight binding; most listed sequences are background and not binding sites; double strand, one strand shown.
Sequence of UniProt P61244 (P61244 whole entry): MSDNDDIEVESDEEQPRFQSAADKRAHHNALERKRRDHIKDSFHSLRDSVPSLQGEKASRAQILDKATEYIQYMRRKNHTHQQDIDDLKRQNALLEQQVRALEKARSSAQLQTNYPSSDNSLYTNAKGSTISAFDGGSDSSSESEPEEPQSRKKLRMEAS
In the case of AGGCTGCA, the binding signal (normalized occupancy) was found to be 0.0727. The value for ACGCCAGC was 0.0724; that for AAAGTGCA was 0.0789; that for CATGTGAC was 0.168. The value for CAAACAAA was 0.0751; that for CAATTTTA was 0.0717; that for ACAAGTGG was 0.0844. For ACAAGTGT the value was 0.0777; for ACCGGTCT, 0.0723; for AATCACTC, 0.0791. Turning to ATTTGTAG, the binding signal (normalized occupancy) was 0.0745. The value for ACGGCGGG was 0.0756; that for CACCAGTG was 0.0724; that for ATCGAGAG was 0.0707.

AGATGGAC: the binding signal (normalized occupancy) came out at 0.0751. For GCCAGCGA the value was 0.0667.

In the case of ACGGAATC, the binding signal (normalized occupancy) came to 0.0794. The value for CGTCCGTA was 0.071; that for CCCCGGCA was 0.0802. For CGGGGACA the value was 0.0771; for ACGCGCTC, 0.0755. The value for ATCGGAAA was 0.0712; that for GGCGACCC was 0.0706; that for CACGTACA was 0.0882. In the case of CTTAACTC, the binding signal (normalized occupancy) stood at 0.072. For GATGGGCA the value was 0.0781; for CATACACC, 0.0901. On to AAGGTAAG, for which the binding signal (normalized occupancy) was determined as 0.0727. For TTCAGAAA the value was 0.0739. For AGCTCCCC, the binding signal (normalized occupancy) stood at 0.073. For GTACAGTA the value was 0.077. The value for ACTGGCCG was 0.0737. For ACGAAAGT the value was 0.0732; for ATGTCTCC, 0.0807; for GCAACTGC, 0.069. AGCGGGCC: the binding signal (normalized occupancy) was 0.0682. For AGTCTTCG the value was 0.0648.

On to GACTAGGC, for which the binding signal (normalized occupancy) is 0.0703. The value for CTCGCTGA was 0.0709. The value for GTGTGTCA was 0.0887.

Regarding CCAGGACA, the binding signal (normalized occupancy) was determined as 0.0774.

With AACGCGCC, the binding signal (normalized occupancy) came out at 0.0697.

With AGAGGAAC, the binding signal (normalized occupancy) was determined as 0.0728.

Regarding CGCAGGTA, the binding signal (normalized occupancy) turned out to be 0.0729. For CCCGGCTC the value was 0.0643; for ACCTAGCA, 0.0776. The value for GAGGACGC was 0.0668. With ACCTGTCT, the binding signal (normalized occupancy) worked out at 0.0791. For the sequence CGTGGGCA, the binding signal (normalized occupancy) is 0.0842.

With ACTGCTCT, the binding signal (normalized occupancy) is 0.0716.

With AATGTTAT, the binding signal (normalized occupancy) is 0.0802. For AACCTCCA the value was 0.0747; for ATGTGAAG, 0.0891. Take ACTCTGCC: the binding signal (normalized occupancy) was 0.0725.

On to GTGTCGGA, for which the binding signal (normalized occupancy) stood at 0.0773. The value for GCATAGAA was 0.08. For the sequence GACTGAGA, the binding signal (normalized occupancy) came out at 0.0692. Regarding GAAATCTA, the binding signal (normalized occupancy) was found to be 0.0763. For CAGCAAAA the value was 0.0739; for AGCATTTA, 0.0741. In the case of ATAACGAA, the binding signal (normalized occupancy) worked out at 0.0764. The value for AGATCTTG was 0.0764. For GAACTGTC the value was 0.0725; for AGGTCTGC, 0.0711.

Consider ACTTTTTA, for which the binding signal (normalized occupancy) stood at 0.0717. The value for GCTTCATA was 0.0763; that for ATCTGAGG was 0.0779. For CTGACCCA the value was 0.077. For ACCAAAAC the value was 0.0688. On to AAGCTAAG, for which the binding signal (normalized occupancy) was 0.0751.

Regarding CTAACACC, the binding signal (normalized occupancy) came to 0.0747.

CACCTTCC: the binding signal (normalized occupancy) amounted to 0.0759. Consider CAGCGCGA, for which the binding signal (normalized occupancy) was 0.0735.

On to CGAGGCAA, for which the binding signal (normalized occupancy) amounted to 0.0752. For GGTGTGAA the value was 0.0819; for AATCGTAG, 0.0762.

Turning to ACCCTACG, the binding signal (normalized occupancy) worked out at 0.0791.

Regarding CTTAGGTA, the binding signal (normalized occupancy) was found to be 0.0737. For ATACAATG the value was 0.0826. The value for AATGCGGT was 0.0825; that for CGTCTCCC was 0.0717. For TCTTATAA the value was 0.0804; for AATAACGG, 0.0747; for CATGGTGC, 0.0928. For TCGTTTCA, the binding signal (normalized occupancy) stood at 0.074. For AAAATATT the value was 0.0814; for AGTCGTCG, 0.0761. For AGCTCCCG the value was 0.0693. For CAAACATA the value was 0.0873. Turning to AGCCATAA, the binding signal (normalized occupancy) was 0.0764. The value for ATTCTTCC was 0.0754. On to CTTGAAAG, for which the binding signal (normalized occupancy) is 0.0735. Take GCTTGATA: the binding signal (normalized occupancy) was found to be 0.0723. Consider CCATGACC, for which the binding signal (normalized occupancy) was 0.0831. For CTAGACTC the value was 0.0763; for AATTGAAC, 0.0797; for GGACTAGA, 0.0729. The value for AAAAGAGA was 0.073; that for GTCAGTTA was 0.077.

As to CCTATAGG, the binding signal (normalized occupancy) came out at 0.0669.

Take AACCTTCA: the binding signal (normalized occupancy) is 0.0729. For CTTGTAAC the value was 0.0775. For CGTCGACC the value was 0.0721; for AGTTCTTA, 0.0713. The value for GCGAGGCC was 0.0712; that for GGGCTGAC was 0.076; that for AGACTTTA was 0.0745. GATCACAC: the binding signal (normalized occupancy) worked out at 0.0863. For TATGCTGA the value was 0.0773; for CGGTGGCC, 0.0697.
